Results reported in the antibiotic and cytotoxicity screens of Wong et al. (2023).
The other results are listed elsewhere or left out.

These compounds were tested on S. aureus RN4220 (assay: growth inhibition call (relative growth <= 0.2)). Conditions: 50 µM.

Growth inhibition call, inactive:
C[C@@H]1O[C@@H](OC[C@H]2O[C@@H](Oc3c(-c4ccc(O)cc4)oc4cc(O)cc(O)c4c3=O)[C@H](O)[C@@H](O)[C@@H]2O)[C@H](O)[C@H](O)[C@H]1O, C[C@@H]1CN([C@@H](C)CO)C(=O)c2cc(NS(=O)(=O)c3ccccc3)ccc2O[C@@H]1CN(C)S(C)(=O)=O, C[C@@H]1CN([C@H](C)CO)S(=O)(=O)c2ccc(-c3ccc(F)cc3)cc2O[C@@H]1CN(C)S(C)(=O)=O, C[C@H]1CN([C@@H](C)CO)C(=O)c2cc(NC(=O)Nc3ccccc3)ccc2O[C@@H]1CN(C)CC1CCCCC1, C[C@H]1CCCCO[C@H](CN(C)Cc2ccc(C(F)(F)F)cc2)[C@@H](C)CN([C@@H](C)CO)C(=O)c2cc(NC(=O)Nc3cccc4ccccc34)ccc2O1, Cc1noc(C)c1NC(=O)Nc1cccc2c1O[C@H](CN(C)C(=O)Nc1cccc3ccccc13)[C@@H](C)CN([C@@H](C)CO)C2=O, C[C@@H]1CN([C@@H](C)CO)C(=O)c2cc(-c3ccc(C(=O)N(C)C)cc3)cnc2O[C@H]1CN(C)C(=O)c1cccnc1, COc1ccc2c3c(n(c2c1)C)[C@@H](CO)N(C[C@]13CCN(CC1)C(=O)C1CCOCC1)C(=O)C1CCOCC1, Nc1ccn(C2OC(CO)C(O)C2O)c(=O)n1 (stereo unspecified), C[C@H]1CN([C@@H](C)CO)S(=O)(=O)c2ccc(C#CC3CC3)cc2O[C@@H]1CN(C)Cc1cccc(F)c1, Cc1ccc(S(=O)(=O)N(C)C[C@@H]2Oc3ccc(NC(=O)CCCN(C)C)cc3C(=O)N([C@@H](C)CO)C[C@@H]2C)cc1
